Test results taken from US20200181257A1 (Chugai, published 2020).
Like-named read-outs stand apart in the source and are kept apart here.

T1: human Fcγ receptor hFcgRIIa (H) (human, UniProt P12318 36-217)
T1 construct: also called FcγRIIa (type H); FcγIIA
T1 sequence: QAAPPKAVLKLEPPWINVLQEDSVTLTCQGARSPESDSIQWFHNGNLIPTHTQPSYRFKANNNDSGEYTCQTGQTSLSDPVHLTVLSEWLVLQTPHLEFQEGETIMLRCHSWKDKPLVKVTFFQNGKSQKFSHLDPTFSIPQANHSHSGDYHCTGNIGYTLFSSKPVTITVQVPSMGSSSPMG

T2: human Fcγ receptor hFcgRIIb (human, UniProt P31994 43-217, limits assumed)
T2 construct: Construct used in the SPR assay is not described; also called FcγRIIb; FcγIIB
T2 sequence: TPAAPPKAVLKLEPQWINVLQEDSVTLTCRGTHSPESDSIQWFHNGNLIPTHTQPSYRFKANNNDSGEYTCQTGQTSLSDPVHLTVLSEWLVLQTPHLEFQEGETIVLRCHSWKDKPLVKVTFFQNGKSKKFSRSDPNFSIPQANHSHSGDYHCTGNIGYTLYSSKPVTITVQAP


Experiments:
Assay in all cases: SPR, antibody captured on Protein A
[1] = target: T3, human Fcγ receptor hFcgRIa (human, UniProt P12314 16-292, limits assumed)
T3 construct: Construct used in the SPR assay is not described; also called hFcγRIa; FcγI
Method: (§1) The CH2 domain, which was modified in this examination, is known to be involved in interaction with several human Fcγ receptors (hereinafter denoted as hFcgRs) which affect effector functions. Therefore, the binding of TS1 and TS19 prepared by using the H chain of anti-IL6R produced in Example 2 to hFcgRs was measured, according to the method described in Reference Example 3.
(§2) Interactions between antibodies and hFcgRs (hFcgRIa, hFcgRIIa(R), hFcgRIIa(H), hFcgRIIb, hFcgRIIIa(F), and hFcgRIIIa(V)) were analyzed using Biacore T100 (GE Healthcare). HBS-EP+(GE Healthcare) was used for the running buffer, and the measurement temperature was set at 25° C. Protein A (Invitrogen) was immobilized by the amino coupling method, and an antibody of interest was captured thereon. Then, hFcγR solutions diluted using the running buffer were injected to allow interaction with the captured antibody at a flow rate of 30 μL/min for five minutes for hFcγRIa, and at a flow rate of 5 μL/min for one minute for the other hFcγRs. […] Since the hFcγR binding level depends on the amount of captured antibodies, the FcgR-binding levels were corrected so that the capture level of each antibody would be 200 RU (resonance unit) for hFcgRIa and 1000 RU (resonance unit) for the other hFcgRs. The captured antibodies were washed by allowing 10 mM glycine-HCl (pH 1.5) to react for 30 seconds at a flow rate of 30 μL/min to recycle the chip for reuse.

[2] = target: T1, human Fcγ receptor hFcgRIIa (H)
Method: as §1, §2

[3] = target: T4, human Fcγ receptor hFcgRIIIa (V) (human, UniProt P08637 fragment)
T4 construct: also called FcγRIIIa allotype V158; FcγIIIA
Method: as §1, §2

[4] = target: T3, human Fcγ receptor hFcgRIa; remark: listed apart in the source
T3 sequence (P12314 16-292 limits assumed): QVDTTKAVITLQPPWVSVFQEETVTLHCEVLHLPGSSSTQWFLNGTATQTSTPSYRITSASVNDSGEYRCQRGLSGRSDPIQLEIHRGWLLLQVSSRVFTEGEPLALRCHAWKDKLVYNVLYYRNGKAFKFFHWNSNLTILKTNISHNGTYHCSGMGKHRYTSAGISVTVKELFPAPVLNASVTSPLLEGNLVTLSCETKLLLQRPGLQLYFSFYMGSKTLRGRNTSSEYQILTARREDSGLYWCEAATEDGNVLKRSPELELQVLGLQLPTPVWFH
Method: (§3) Furthermore, binding ability to hFcgRs was measured by the method described in Reference Example 3.
as §2

[5] = target: T2, human Fcγ receptor hFcgRIIb
Method: as §3, §2

[6] = target: T4, human Fcγ receptor hFcgRIIIa (V); remark: listed apart in the source
T4 sequence (P08637 other isoform, or with tags, fused parts or gaps limits assumed): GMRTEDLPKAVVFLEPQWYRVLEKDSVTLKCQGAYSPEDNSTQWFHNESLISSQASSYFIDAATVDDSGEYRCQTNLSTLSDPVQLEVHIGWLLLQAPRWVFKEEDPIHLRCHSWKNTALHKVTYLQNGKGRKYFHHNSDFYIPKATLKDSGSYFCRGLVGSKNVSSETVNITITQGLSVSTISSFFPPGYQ
Method: as §3, §2

Row | Binder | binding relative to G1 (=100) [1] | binding relative to G1 (=100) [2] | binding relative to G1 (=100) [3] | binding relative to G1 (=100) [4] | binding relative to G1 (=100) [5] | binding relative to G1 (=100) [6]
1 | TS15 (antibody, anti-IL6R IgG1, G1d with H268K/D270F (EU)) heavy: QVQLQESGPGLVRPSQTLSLTCTVSGYSITSDHAWSWVRQPPGRGLEWIGYISYSGITTYNPSLKSRVTMLRDTSKNQFSLRLSSVTAADTAVYYCARSLARTTAMDYWGQGSLVTVSS[human IgG1 constant region with H268K D270F (EU numbers) not shown] light: DIQMTQSPSSLSASVGDRVTITCRASQDISSYLNWYQQKPGKAPKLLIYYTSRLHSGVPSRFSGSGSGTDFTFTISSLQPEDIATYYCQQGNTLPYTFGQGTKVEIKRTVAAPSVFIFPPSDEQLKSGTASVVCLLNNFYPREAKVQWKVDNALQSGNSQESVTEQDSKDSTYSLSSTLTLSKADYEKHKVYACEVTHQGLSSPVTKSFNRGEC | 80.8 | 30.6 | 10.1 | – | – | –
2 | TS45 (antibody, anti-IL6R IgG1, G1d with T250F (EU)) heavy: QVQLQESGPGLVRPSQTLSLTCTVSGYSITSDHAWSWVRQPPGRGLEWIGYISYSGITTYNPSLKSRVTMLRDTSKNQFSLRLSSVTAADTAVYYCARSLARTTAMDYWGQGSLVTVSS[human IgG1 constant region with T250F (EU numbers) not shown] light: DIQMTQSPSSLSASVGDRVTITCRASQDISSYLNWYQQKPGKAPKLLIYYTSRLHSGVPSRFSGSGSGTDFTFTISSLQPEDIATYYCQQGNTLPYTFGQGTKVEIKRTVAAPSVFIFPPSDEQLKSGTASVVCLLNNFYPREAKVQWKVDNALQSGNSQESVTEQDSKDSTYSLSSTLTLSKADYEKHKVYACEVTHQGLSSPVTKSFNRGEC | – | – | – | 105 | 150 | 84.7
3 | TS46 (antibody, anti-IL6R IgG1, G1d with T250I (EU)) heavy: QVQLQESGPGLVRPSQTLSLTCTVSGYSITSDHAWSWVRQPPGRGLEWIGYISYSGITTYNPSLKSRVTMLRDTSKNQFSLRLSSVTAADTAVYYCARSLARTTAMDYWGQGSLVTVSS[human IgG1 constant region with T250I (EU numbers) not shown] light: DIQMTQSPSSLSASVGDRVTITCRASQDISSYLNWYQQKPGKAPKLLIYYTSRLHSGVPSRFSGSGSGTDFTFTISSLQPEDIATYYCQQGNTLPYTFGQGTKVEIKRTVAAPSVFIFPPSDEQLKSGTASVVCLLNNFYPREAKVQWKVDNALQSGNSQESVTEQDSKDSTYSLSSTLTLSKADYEKHKVYACEVTHQGLSSPVTKSFNRGEC | – | – | – | 99.2 | – | 89.6
4 | TS47 (antibody, anti-IL6R IgG1, G1d with T250M (EU)) heavy: QVQLQESGPGLVRPSQTLSLTCTVSGYSITSDHAWSWVRQPPGRGLEWIGYISYSGITTYNPSLKSRVTMLRDTSKNQFSLRLSSVTAADTAVYYCARSLARTTAMDYWGQGSLVTVSS[human IgG1 constant region with T250M (EU numbers) not shown] light: DIQMTQSPSSLSASVGDRVTITCRASQDISSYLNWYQQKPGKAPKLLIYYTSRLHSGVPSRFSGSGSGTDFTFTISSLQPEDIATYYCQQGNTLPYTFGQGTKVEIKRTVAAPSVFIFPPSDEQLKSGTASVVCLLNNFYPREAKVQWKVDNALQSGNSQESVTEQDSKDSTYSLSSTLTLSKADYEKHKVYACEVTHQGLSSPVTKSFNRGEC | – | – | – | 101 | 163 | 72
5 | TS50 (antibody, anti-IL6R IgG1, G1d with T250Y (EU)) heavy: QVQLQESGPGLVRPSQTLSLTCTVSGYSITSDHAWSWVRQPPGRGLEWIGYISYSGITTYNPSLKSRVTMLRDTSKNQFSLRLSSVTAADTAVYYCARSLARTTAMDYWGQGSLVTVSS[human IgG1 constant region with T250Y (EU numbers) not shown] light: DIQMTQSPSSLSASVGDRVTITCRASQDISSYLNWYQQKPGKAPKLLIYYTSRLHSGVPSRFSGSGSGTDFTFTISSLQPEDIATYYCQQGNTLPYTFGQGTKVEIKRTVAAPSVFIFPPSDEQLKSGTASVVCLLNNFYPREAKVQWKVDNALQSGNSQESVTEQDSKDSTYSLSSTLTLSKADYEKHKVYACEVTHQGLSSPVTKSFNRGEC | – | – | – | 102 | 169 | 98.9
6 | TS55 (antibody, anti-IL6R IgG1, G1d with L309A (EU)) heavy: QVQLQESGPGLVRPSQTLSLTCTVSGYSITSDHAWSWVRQPPGRGLEWIGYISYSGITTYNPSLKSRVTMLRDTSKNQFSLRLSSVTAADTAVYYCARSLARTTAMDYWGQGSLVTVSS[human IgG1 constant region with L309A (EU numbers) not shown] light: DIQMTQSPSSLSASVGDRVTITCRASQDISSYLNWYQQKPGKAPKLLIYYTSRLHSGVPSRFSGSGSGTDFTFTISSLQPEDIATYYCQQGNTLPYTFGQGTKVEIKRTVAAPSVFIFPPSDEQLKSGTASVVCLLNNFYPREAKVQWKVDNALQSGNSQESVTEQDSKDSTYSLSSTLTLSKADYEKHKVYACEVTHQGLSSPVTKSFNRGEC | – | – | – | 99.2 | 106 | 90.5
7 | TS59 (antibody, anti-IL6R IgG1, G1d with N315A (EU)) heavy: QVQLQESGPGLVRPSQTLSLTCTVSGYSITSDHAWSWVRQPPGRGLEWIGYISYSGITTYNPSLKSRVTMLRDTSKNQFSLRLSSVTAADTAVYYCARSLARTTAMDYWGQGSLVTVSS[human IgG1 constant region with N315A (EU numbers) not shown] light: DIQMTQSPSSLSASVGDRVTITCRASQDISSYLNWYQQKPGKAPKLLIYYTSRLHSGVPSRFSGSGSGTDFTFTISSLQPEDIATYYCQQGNTLPYTFGQGTKVEIKRTVAAPSVFIFPPSDEQLKSGTASVVCLLNNFYPREAKVQWKVDNALQSGNSQESVTEQDSKDSTYSLSSTLTLSKADYEKHKVYACEVTHQGLSSPVTKSFNRGEC | – | – | – | 102 | 99 | 96.1
8 | TS64 (antibody, anti-IL6R IgG1, G1d with M428W (EU)) heavy: QVQLQESGPGLVRPSQTLSLTCTVSGYSITSDHAWSWVRQPPGRGLEWIGYISYSGITTYNPSLKSRVTMLRDTSKNQFSLRLSSVTAADTAVYYCARSLARTTAMDYWGQGSLVTVSS[human IgG1 constant region with M428W (EU numbers) not shown] light: DIQMTQSPSSLSASVGDRVTITCRASQDISSYLNWYQQKPGKAPKLLIYYTSRLHSGVPSRFSGSGSGTDFTFTISSLQPEDIATYYCQQGNTLPYTFGQGTKVEIKRTVAAPSVFIFPPSDEQLKSGTASVVCLLNNFYPREAKVQWKVDNALQSGNSQESVTEQDSKDSTYSLSSTLTLSKADYEKHKVYACEVTHQGLSSPVTKSFNRGEC | – | – | – | 99.4 | 124 | 105
9 | TS65 (antibody, anti-IL6R IgG1, G1d with M428Y (EU)) heavy: QVQLQESGPGLVRPSQTLSLTCTVSGYSITSDHAWSWVRQPPGRGLEWIGYISYSGITTYNPSLKSRVTMLRDTSKNQFSLRLSSVTAADTAVYYCARSLARTTAMDYWGQGSLVTVSS[human IgG1 constant region with M428Y (EU numbers) not shown] light: DIQMTQSPSSLSASVGDRVTITCRASQDISSYLNWYQQKPGKAPKLLIYYTSRLHSGVPSRFSGSGSGTDFTFTISSLQPEDIATYYCQQGNTLPYTFGQGTKVEIKRTVAAPSVFIFPPSDEQLKSGTASVVCLLNNFYPREAKVQWKVDNALQSGNSQESVTEQDSKDSTYSLSSTLTLSKADYEKHKVYACEVTHQGLSSPVTKSFNRGEC | – | – | – | 101 | – | 96.8
